Laboratory results as given in PubChem BioAssay AID1768 (National Center for Advancing Translational Sciences (NCATS), 2009).
Screen size: about 270,000 compounds; about 620 (0.23%) were called active. The inconclusive results got no clear call from the source; some entries with a clear call stand among them for comparison. Calls follow the shape of the dose curve; as a rule, active = well fitted inhibition curve with a large enough effect in the polarisation, with a control signal flat (not every such curve was filed as active); inconclusive = small, poorly fitted or top-dose-only effect, or effect the other way, or a change in a side signal; inactive = no such curve, though single readings can be large or run the other way; the % refers to the polarisation. A potency beside an inconclusive call is a rough fit, not a confirmed value. “Side channel” marks fits to a control or component signal instead of the main read-out.

These compounds were tested against Menin (Homo sapiens) (UniProt O00255) (assay: qHTS Assay for Inhibitors Targeting the Menin-MLL Interaction in MLL Related Leukemias: Competition With Texas Red Labeled MLL-derived Mutant Peptide). Conditions: fluorescence polarization; FP activity change, negative = inhibition: at 61.6 µM (top of the series).
For FP activity change, negative = inhibition in this document: % of control where 0% means no effect.
Potency is read from the fitted curve at half-maximal effect; tags tell the direction and shape of the fitted curve or compound fluorescence and quenching.

Chain of UniProt O00255 (O00255 whole entry, looked up): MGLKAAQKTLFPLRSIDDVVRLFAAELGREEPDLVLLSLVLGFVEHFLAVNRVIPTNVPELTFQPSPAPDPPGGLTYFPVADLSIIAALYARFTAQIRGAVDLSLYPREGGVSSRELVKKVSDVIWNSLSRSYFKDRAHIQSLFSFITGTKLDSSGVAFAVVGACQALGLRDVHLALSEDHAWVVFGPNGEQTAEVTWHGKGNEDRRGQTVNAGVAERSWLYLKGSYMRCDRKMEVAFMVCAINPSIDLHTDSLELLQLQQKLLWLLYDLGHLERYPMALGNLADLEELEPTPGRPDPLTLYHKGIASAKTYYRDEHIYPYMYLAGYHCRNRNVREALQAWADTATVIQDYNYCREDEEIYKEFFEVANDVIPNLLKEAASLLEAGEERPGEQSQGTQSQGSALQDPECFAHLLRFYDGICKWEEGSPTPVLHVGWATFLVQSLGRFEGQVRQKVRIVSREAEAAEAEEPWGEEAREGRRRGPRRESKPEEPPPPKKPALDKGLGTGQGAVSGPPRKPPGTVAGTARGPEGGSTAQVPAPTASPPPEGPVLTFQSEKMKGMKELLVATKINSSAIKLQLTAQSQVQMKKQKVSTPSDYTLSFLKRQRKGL

Potency, inconclusive:
CCc1nnc(NC(=O)CSc2nc3cc(OC)ccc3cc2C)s1 20 µM [fluorescent, side channel, single point]
CC(C)OC(=O)c1cn(Cc2c(F)cccc2F)c2sc(-c3ccc(NC(=O)C(C)C)cc3)c(CN(C)Cc3ccccc3)c2c1=O 7.08 µM [inhibitor, full curve, poor fit]
CCCCCCCCCC[N+](C)(C)CC/C=C1/c2ccccc2Sc2ccc(Cl)cc21 5.01 µM [fluorescent, side channel, full curve]
O=C(Nc1ccc(Cc2ccc(NC(=O)C3CC3)cc2)cc1)C1CC1 39.8 µM [inhibitor, single point]
Cc1nc2cnc(N(C)C)nc2n(CCc2ccccc2)c1=O 8.91 µM [quencher, side channel, single point]
CCN1/C(=C/c2ccc3ccccc3[n+]2CC)C=Cc2ccccc21 25.1 µM [fluorescent, side channel, partial curve]
COc1ccc(NC(=S)N2CCNC(=O)C2CC(=O)Nc2cccc(Cl)c2C)cc1 (centres undefined) 35.5 µM [quencher, side channel, single point]
COc1cc([N+](=O)[O-])ccc1NC(=O)C[n+]1ccccc1C 2.82 µM [inhibitor, full curve, poor fit]
CCOC(=O)C1(O)CSc2nc3sc(C(=O)O)c(C)c3c(=O)n21 (centres undefined) 39.8 µM [inhibitor, single point]
CCN1C(c2ccccc2)=C(c2ccccc2)S/C1=C/C=C1\SC(=S)N(C)C1=O 2.51 µM [fluorescent, side channel, full curve]
CC(NC(=O)c1cc(F)c(F)cc1Cl)C1CC2CCC1C2 (centres undefined) 6.31 µM [inhibitor, partial curve]
O=C(NC12CC3CC(CC(C3)C1)C2)N(Cc1ccccc1)Cc1ccncc1 2 µM [inhibitor, single point]
COc1ccc(C)cc1NC(=O)CNC(C)C(=O)Nc1cc(Cl)ccc1Cl (centres undefined) 11.2 µM [fluorescent, side channel, partial curve]
COc1ccc(C(=O)c2cn[nH]c2-c2ccc(C)cc2O)cc1 25.1 µM [quencher, side channel, partial curve]
CC1(C)C2CCC(C2)C1(C)NC(=O)CNCc1cccs1 (centres undefined) 3.55 µM [inhibitor, partial curve, poor fit]
O=[N+]([O-])c1cccc(C(=S)N2CCN(c3ccc(F)cc3)CC2)c1 14.1 µM [quencher, side channel, partial curve]
O=C(CSc1nc2ccccc2s1)NNC(=S)Nc1ccc(Cl)cc1 28.2 µM [quencher, side channel, single point]
CCC1C(=O)N=C(SCC(=O)Nc2ccc(C)cc2)N(c2ccccc2)C1=O (centres undefined) 2 µM [quencher, side channel, partial curve, poor fit]
O=C(Cc1ccccc1)N1CCN(c2ccc([N+](=O)[O-])cc2)CC1 12.6 µM [inhibitor, partial curve]
CC(C)Cn1c2c(c(=O)[nH]c1=O)C(C(F)(F)F)(C(F)(F)F)N=C(CCC1CCCCC1)N2 5.01 µM [fluorescent, side channel, full curve]
COc1ccc(N(CC(C)C)S(=O)(=O)c2nnc(NC(=O)CC(C)C)s2)cc1 12.6 µM [fluorescent, side channel, partial curve]
Cc1ccc(C(=O)Nc2ccc3cn[nH]c3c2)cc1S(=O)(=O)N1CCCCC1 25.1 µM [quencher, side channel, single point]
Cc1ccccc1/C=C/c1cccc[n+]1C 11.2 µM [inhibitor, partial curve]
CC(C)CNC(=O)c1cccc(NC(=O)c2ccc(NC(=O)c3ccco3)cc2)c1 39.8 µM [fluorescent, side channel, single point]
CCOC(=O)Cc1csc(NS(=O)(=O)c2ccc([N+](=O)[O-])cc2)n1 31.6 µM [quencher, side channel, single point]
O=C(O)c1ccc(N/N=C/c2ccc(-c3ccccc3)cc2)cc1 12.6 µM [quencher, side channel, partial curve]
O=[N+]([O-])c1cc([N+](=O)[O-])c2cccnc2c1Oc1ccccc1O 39.8 µM [quencher, side channel, single point]
O=C(O)c1ccc(NC(=O)c2cn(-c3ccccc3)nc2-c2ccc(Br)cc2)cc1 6.31 µM [quencher, side channel, partial curve]
CCc1ccc(N(C(=O)c2snc(C(N)=O)c2N)C(C(=O)NCCC(C)C)c2c[nH]c3ccccc23)cc1 (centres undefined) 1.58 µM [inhibitor, partial curve]

FP activity change, negative = inhibition, inactive:
COC(=O)c1ccc(C(=O)OC)c(NC(=S)N2CCN(C)CC2)c1 -15.2%
CNC(=O)COC(=O)c1cc2c(C)nn(-c3ccc(F)cc3)c2s1 -14.3%
Cc1cc(NS(=O)(=O)c2ccc(NC(=O)COc3ccc(Cl)cc3)cc2)no1 -10.3%
CNC(=O)[C@H]1O[C@@H](n2cnc3c(N)ncnc32)[C@H](O)[C@H]1O -5.78%
O=C(C1CCCCC1)N1CCC(c2nc3ccccc3[nH]2)CC1 0.857%
C=C[C@H]1CCC=C2C(=O)CCC[C@@H]21 -16.5%
OC(COCC1COc2ccccc2O1)CN1CCN(c2ccccc2)CC1 (centres undefined) 0.921%
Cc1cc(-c2ccccc2)c2c3c(c(-c4ccccc4)n2n1)c(=O)n(C)c(=O)n3C 4.22%
Oc1ccc(CN2CCCCC2)c2cccnc12 -1.5%
Cc1cc(O)ccc1N/C=C(\C#N)c1nc2ccccc2o1 2.42%
